This is one part of the list.

The subject of the assay is PfHDP1 homeodomain (GST-tagged). Description: gcPBM binding intensity (ln(normalized median fluorescence intensity)); higher = stronger DNA binding. In a few lines: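 An Agilent 4 × 180k array of primer-extended double-stranded 36-bp intergenic genomic probes, with negative controls, was incubated for 1 h with GST-tagged P. falciparum DNA-binding domains expressed in E. coli. Alexa488 anti-GST antibody detected bound protein, scanned at 488 nm. Binding intensity is the highest Masliner-normalised natural-log median intensity across replicate spots of either probe orientation.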
Take “TTAAAAATATATATAACACACACATAATATATATAT [CACACA_site8811]”: the “gcPBM binding intensity (ln)” value turned out to be 8.12.
Regarding “TTTTTTTTTCCCGTAAATATTGAGACAACCATAATG [CACACA_negctrl_site41]”, the “gcPBM binding intensity (ln)” value was 6.33.
With “TCCTTATATTTGCACACACACACAAGAAAATGAAAA [CACACA_site6613]”, the “gcPBM binding intensity (ln)” value was determined as 11.
As for “TTAGAAACATTGAAAGCATGCAATATTACTTTATAC [TGCATGCA_site522]”, the figure is 6.54.
As for “TATAAATATTACGGTAGTACTATACATATATATAAT [XGTACX_site7442]”, the figure is 6.42; as for “AAGATATATATAGAAAGTACTTATATTTGTATAATT [XGTACX_site8855]”, 6.49; as for “ATATTAATATATATGTTTTATTACCATTTTATGTAT [CACACA_negctrl_site1761]”, 6.73.
As to “AATAAATAAATATATACACACATATATATATAATAT [CACACA_site921]”, the “gcPBM binding intensity (ln)” value was found to be 6.46.
Regarding “TGAAAAAATATAAAATATAAAATAAAAAATATAAAA [GTGCAC_negctrl_site536]”, the “gcPBM binding intensity (ln)” value worked out at 6.28.
The figure for “TACAATCTAAAATACACACACACAAACATATATTTA [CACACA_site3702]” is 6.88.
In the case of “ATATATTTTCAAAAAAGTAAATCAAAATAAATATAT [TGCATGCA_negctrl_site319]”, the “gcPBM binding intensity (ln)” value stood at 6.44.
As for “TCCAAATACAACTACACACAAACAAAAATTATATAT [CACACA_site881]”, the “gcPBM binding intensity (ln)” value amounted to 6.71.
In the case of “ATGGTTTAGTTATATACACACTCGAAAATAACGACA [CACACA_site7520]”, the “gcPBM binding intensity (ln)” value was determined as 6.65.
The figure for “TATAAAAATATATTTACACACTATATATATCGAAAG [CACACA_site1700]” is 6.72; for “TTAAAATTAATTCACCAGTATTAAAATAAAAACGAA [CACACA_negctrl_site1428]” it is 6.74; for “AAATAAAATTTTATGTGTACGCAAAAAGTTGTAAGC [XGTACX_site8911]” it is 7.29.
For “AAAATTTTTCTTAAAGCATGCACAATTAAGAAGACG [TGCATGCA_site883]”, the “gcPBM binding intensity (ln)” value was found to be 8.29.
As for “TTTTTTTTAAGAGATAGTACATAAATATTATAATAT [XGTACX_site4685]”, the figure is 6.48.
In the case of “AAAATAATTATGAATTGTACAGGTTTTTTTTTTTTT [XGTACX_site220]”, the “gcPBM binding intensity (ln)” value came to 6.28.
As for “AAAAAATTTTTAAGCACACACATAGATAATATATAT [CACACA_site1555]”, the figure is 7.04; as for “GGAAAAAAAAAAAAAAAACACACGGTACATTCAAAC [CACACA_site2715]”, 6.36; as for “TCTACAATTATAATTACACACTATAAAAAAGAAAGA [CACACA_site2984]”, 6.76.
As for “AAAAATAGGAACCAATATCCAACGTGACTTTATAAT [CACACA_negctrl_site1011]”, the figure is 6.4; as for “ATTTTTTTTTTTTTTTTTTTTTTTTTTTGATTTGTG [CACACA_negctrl_site1391]”, 5.82.
For the sequence “TTATTTTATTTTAAAAAAAACAATATAAATTCAAAG [GTGCAC_negctrl_site57]”, the “gcPBM binding intensity (ln)” value stood at 6.13.
Regarding “ATGTCAAATTTTTGTGCACACATATATAGTTATTAT [CACACA_site2242]”, the “gcPBM binding intensity (ln)” value was 11.4.
With “ATAAAAATTGATTATACACACGCGCACCCACAACAA [CACACA_site3536]”, the “gcPBM binding intensity (ln)” value was 7.35.
The figure for “TATTTATAAATTTACACACACACATGGGAACATAAA [CACACA_site5111]” is 7.14.
With “TAAGGATAAATAAAATGAAATGAAATAAATAAATGA [XGTACX_negctrl_site539]”, the “gcPBM binding intensity (ln)” value was determined as 6.47.
The figure for “TATATATATCAGCAATGTACACAATGCATATTATAT [XGTACX_site4836]” is 6.38; for “AAAAAAAAAAATATCACACACACATAAATATAAACA [CACACA_site7138]” it is 6.78; for “CATATATATATATATACACACATATATATTTTCTTT [CACACA_site1457]” it is 7.04.
As for “AAAGTAGGCTTATATGCACACTTTGAAATATTATAA [CACACA_site5117]”, the figure is 9.77; as for “CAATATTATATATATACACACATAATCTGTAAAAAC [CACACA_site1068]”, 6.55.
As for “ATTATACAAAATGGTAAGGAAAAGGAAATTTTTTTT [CACACA_negctrl_site1090]”, the figure is 6; as for “TTTTTATTTAATATTTTAAAAAAAAATCATTTTTAA [XGTACX_negctrl_site207]”, 5.94.
“TATATAGTAATATATACACACACTTGTCTTGTAAAA [CACACA_site990]”: the “gcPBM binding intensity (ln)” value was 6.56.
In the case of “ATATTTTTTTATAAATGTACAAAAATAATATTGCAT [XGTACX_site7399]”, the “gcPBM binding intensity (ln)” value is 6.22.
On to “CCATTTACCCTTGCCATGCACACTTTTTTATAGAAA [CACACA_site3505]”, for which the “gcPBM binding intensity (ln)” value amounted to 8.98.
As for “AAAATAATGTTTATATGTACATATATATATATATAT [XGTACX_site8815]”, the figure is 9.31; as for “TTATAAAAATAATATCGTACAAATGATAAAGATTAA [XGTACX_site4893]”, 6.5.
As for “ACATATATATATATATATAATATTTTATATTTATTA [CACACA_negctrl_site713]”, the figure is 6.66.
The figure for “TGAATTCGTCAAAAGCGTACATATAATATCTTCTTG [XGTACX_site8842]” is 6.46.
For “TATATATACATATACACACACACACCCATATATATA [CACACA_site2246]”, the “gcPBM binding intensity (ln)” value is 7.23.
